Test system: human peripheral blood mononuclear cells
Assay: Induction of IL-28A, IL-29 and IL-28B RNA by poly I:C (RT-PCR)
Assay type: cell-based
Conditions: poly I:C 100 μg/ml, 15 h, versus untreated cells
Description: After a 15 h incubation, total RNA was isolated from cells and treated with RNase-free DNase.

polyinosinic acid-polycytidylic acid [poly I:C]
amount of IL-28A, IL-29, IL-28B RNA: increased

Reference: patent publication US20120114590A1 (priority 2005, published 2012)
